Measured values from PubChem BioAssay AID743279 (National Center for Advancing Translational Sciences (NCATS), 2014).
In all, about 360,000 compounds went through this assay and about 17,000 (4.7%) were called active. Inconclusive means that the source gave no clear call. Such entries were picked first, then a sample of the others. Rule as the data show it: active = activity change below about -50%; inconclusive = mostly about -30% to -49%; inactive = weaker than that.

Experiment: qHTS for Inhibitors of Inflammasome Signaling: IL-1-beta AlphaLISA Primary Screen
Settings: THP-1 LPS/ATP IL-1B secretion, 16 h; at 57.5 µM, hits give low values
Procedure, shortened: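 Secreted IL-1B measured by AlphaLISA bead assay after 16 h compound exposure of THP-1 cells; compounds (final up to 57.5 uM) added 1 h before LPS (250 ng/mL) and ATP (1.25 mM) stimulation; lower signal means less secretion.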
% is scaled to controls: 0 for no effect and ±100 for the full control effect.

SMILES | activity change
Cc1cc2cc(CCNC(=O)c3cccc([N+](=O)[O-])c3)c(=O)[nH]c2cc1C | inconclusive: -39.6%
O=C(NCc1ccc2c(c1)OCO2)OCc1ccccc1 | inconclusive: -39.7%
CC1(C)CC(NC(=O)C2CCC(=O)N(C3CC3)C2)CC(C)(C)C1 (configuration not stated) | inactive: 18.2%
Cc1ccc(-c2cc(NC(=O)c3ccccc3[N+](=O)[O-])n[nH]2)cc1 | inactive: -5.06%
CC1(C)CN=c2s/c(=C\c3ccc(Cl)cc3)c(=O)n2C1 | active: -85.5%
O=C(Cn1c2ccccc2c2nc3n(c(=O)c21)CCCS3)Nc1ccccc1 | inconclusive: -42.2%
CCN1CCN(c2nnc(-c3ccc(F)cc3)c3ccccc23)CC1 | inconclusive: -39%
O=C(c1cccc(COc2cccc3ccccc23)c1)N1CCCC1 | inconclusive: -39.9%
Cc1cccc(NC(=O)c2nc(S(=O)(=O)Cc3ccccc3)ncc2Cl)c1 | active: -103%
COc1cc(Cl)c(CN2CCC(CO)(CCOc3ccccc3)CC2)cc1OC | inconclusive: -37.5%
Cc1ccc(S(=O)(=O)c2c[nH]c3ccc(C)cc3c2=O)cc1 | inconclusive: -42.5%
CCC(C)NC(=O)COC(=O)c1cc([N+](=O)[O-])ccc1Sc1nc(C)cs1 (configuration not stated) | inactive: -17.3%
O=C1c2ccc(Cl)cc2S(=O)(=O)c2cccc(C(=O)N3CCN(c4ccc(Cl)cn4)CC3)c21 | active: -93.4%
CCOc1cc(C(=O)Nc2cc(F)ccc2C)ccc1OCC(=O)N1CCOCC1 | inactive: -6.88%
COc1ccc(C)cc1Nc1nc(N)c2cc(OC)c(OC)cc2n1 | active: -92.4%
C=CCNC(=O)C1CCC(=O)N1S(=O)(=O)c1ccc(C)cc1 (configuration not stated) | inactive: -2.17%
CCN(CC)CC(O)CN1c2ccccc2Sc2ccccc21 (configuration not stated) | active: -68.4%
COc1cc(OC)cc(C(=O)NNC(=O)c2cc(S(=O)(=O)N3CCOCC3)ccc2F)c1 | inactive: 11.2%
O=C(CSc1nnc(-c2ccco2)n1Cc1ccccc1)NC(=O)NCc1ccccc1 | inactive: -23.5%
Cc1ccc(C)c(OCc2ccc(C(=O)N3N=C(C(F)F)CC3(O)C(F)F)o2)c1 (configuration not stated) | inconclusive: -44.7%
CCOc1ccc(C(=O)C(CN2CCOCC2)c2ccccc2)cc1 (configuration not stated) | active: -95%

SMILES | activity change
Cc1ccc(-n2c(C)cc(C(=S)N3CCOCC3)c2C)cc1C | active: -67.3%
CCCCC[C@H](C)N1C[C@H](COCc2ccccc2)Oc2cc(N3CC[C@H](N(C)C)C3)ccc2S1(=O)=O | inconclusive: -41%
Oc1ccc(C[C@H]2CNCCN2CCCCC2CCCCC2)cc1 | inconclusive: -47.8%
CC(C)c1ccc(CN(C(=O)C2COc3ccccc3O2)C2CCS(=O)(=O)C2)cc1 (configuration not stated) | inconclusive: -39.9%
COc1ccc(CNC(=O)C2CCN(C(=O)c3ccccc3)CC2)cc1 | inactive: 0%
COC(=O)c1cccc(C23CC4(C2)[C@H](CN(Cc2cccnc2)[C@@H]4c2ccccc2)C3c2ccc(Cl)nc2)c1 (some centres not stated) | inactive: 31.7%
COc1cc(/C=N/Nc2ccnc(=O)[nH]2)ccc1O | inconclusive: -33.5%
Cn1nc(C(C)(C)C)cc1C(=O)N1CCCCC1c1cc(C(=O)Nc2ccc(F)c(Cl)c2)no1 (configuration not stated) | active: -63.5%
Cc1ccccc1-n1ncc2c(SCC(=O)N3c4ccccc4CC3C)ncnc21 (configuration not stated) | active: -91.8%
CCOCCc1nnc(NC(=O)CCC2CCCCC2)s1 | inactive: 70.1%
Cc1ccc(NC(=O)CSCC(=O)N(C)CCOc2ccc(Cl)cc2)cc1 | inactive: -0.106%
COc1cc(NC(=O)Cc2ccc(Cl)cc2)ccc1NC(=O)c1ccco1 | inconclusive: -32.1%
COC(=O)C1C(=O)c2c([nH]c(C(=O)OC3CCCCC3)c2C)CC1C (configuration not stated) | inconclusive: -35.9%
Cc1c(C)n(CC(O)CSc2ccccc2)c2ccccc12 (configuration not stated) | inconclusive: -37.1%
COc1ccc(-c2cc(C(=O)Nc3ccccc3O)c3ccccc3n2)cc1 | active: -84.2%
CCC(/C=C1\Sc2ccc(OC)cc2N1CCO)=C\c1sc2ccc(OC)cc2[n+]1CCO | active: -113%
O=C(NC1CCCC1)C(c1ccccc1)n1c(Cc2cc(F)cc(F)c2)nc2ccccc21 (configuration not stated) | inactive: -4.63%
Cn1ncc2c(Nc3cccc(Cl)c3)nc(Nc3cccc(Cl)c3)nc21 | active: -81.1%
CC(C)/C=C/CN1CCCC(N2CCN(c3cccc(Cl)c3)CC2)C1 (configuration not stated) | inconclusive: -41.3%
COc1cc(/C=C/C(=O)c2ccc(O)cc2)ccc1OCC#N | inconclusive: -39%
Cn1cc(Cl)c(C(=O)OCC(=O)c2ccccc2)n1 | inactive: -8.47%
